{"source": "the supplement of paper PMC8728848", "binders": {"B1": {"name": "Als1 (Candida albicans), P46590 (protein)", "chain": "KTITGVFDSFNSLTWSNAANYAFKGPGYPTWNAVLGWSLDGTSANPGDTFTLNMPCVFKYTTSQTSVDLTADGVKYATCQFYSGEEFTTFSTLTCTVNDALKSSIKAFGTVTLPIAFNVGGTGSSTDLEDSKCFTAGTNTVTFNDGDKDISIDVEFEKSTVDPSGYLYASRVMPSLNKVTTLFVAPQCENGYTSGTMGFSSSNGDVAIDCSNIHIGITKGLNDWNYPVSSESFSYTKTCTSNGIQIKYQNVPAGYRPFIDAYISATDVNQYTLAYTNDYTCAGSRLQSKPFTLRWTGYKNSDAGSNGIVIVATTRTVTDSTTAVTTLPFNPSVDKTKTIEILQPIPTTTITTSYVGVTTSYLTKTAPIGETATVIVDVPYHTTTTVTSEWTGTITTTTTRTNPTDSIDTVVVQVP"}}, "experiment_in_all_cases": "glycan array binding signal (z-score within array); higher = stronger binding", "details_in_all_cases": "glycan notation: IUPAC condensed, linker removed", "key": {"Fuc(a1-2)Gal(b1-4)Glc": {"molecular_target": "Fuc(a1-2)Gal(b1-4)Glc", "summary_of_the_method": "(§1)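 The Consortium for Functional Glycomics database supplied 3228 glycan arrays, of which those lacking an available protein sequence were dropped. The binding signal, a within-array Z-score, was averaged across arrays of the same protein sequence and across linkers. Negative scores can be read as non-binding.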"}, "Fuc(a1-2)Gal(b1-4)Glc6S": {"molecular_target": "Fuc(a1-2)Gal(b1-4)Glc6S", "summary_of_the_method": "as §1"}, "Fuc(a1-2)Gal(b1-4)GlcNAc": {"molecular_target": "Fuc(a1-2)Gal(b1-4)GlcNAc", "summary_of_the_method": "as §1"}, "[1]": {"molecular_target": "Fuc(a1-2)Gal(b1-4)GlcNAc(b1-2)Man", "summary_of_the_method": "as §1"}, "[2]": {"molecular_target": "Fuc(a1-2)Gal(b1-4)GlcNAc(b1-2)Man(a1-3)[Fuc(a1-2)Gal(b1-4)GlcNAc(b1-2)Man(a1-6)]Man(b1-4)GlcNAc(b1-4)GlcNAc", "summary_of_the_method": "as §1"}, "[3]": {"molecular_target": "Fuc(a1-2)Gal(b1-4)GlcNAc(b1-2)Man(a1-3)[Fuc(a1-2)Gal(b1-4)GlcNAc(b1-2)Man(a1-6)]Man(b1-4)GlcNAc(b1-4)[Fuc(a1-6)]GlcNAc", "summary_of_the_method": "as §1"}, "[4]": {"molecular_target": "Fuc(a1-2)Gal(b1-4)GlcNAc(b1-2)[Fuc(a1-2)Gal(b1-4)GlcNAc(b1-4)]Man(a1-3)[Fuc(a1-2)Gal(b1-4)GlcNAc(b1-2)Man(a1-6)]Man(b1-4)GlcNAc(b1-4)GlcNAc", "summary_of_the_method": "as §1"}, "[5]": {"molecular_target": "Fuc(a1-2)Gal(b1-4)GlcNAc(b1-3)Gal(b1-4)GlcNAc", "summary_of_the_method": "as §1"}, "[6]": {"molecular_target": "Fuc(a1-2)Gal(b1-4)GlcNAc(b1-3)Gal(b1-4)GlcNAc(b1-2)Man(a1-3)[Fuc(a1-2)Gal(b1-4)GlcNAc(b1-3)Gal(b1-4)GlcNAc(b1-2)Man(a1-6)]Man(b1-4)GlcNAc(b1-4)GlcNAc", "summary_of_the_method": "as §1"}, "[7]": {"molecular_target": "Fuc(a1-2)Gal(b1-4)GlcNAc(b1-3)Gal(b1-4)GlcNAc(b1-3)Gal(b1-4)GlcNAc", "summary_of_the_method": "as §1"}, "[8]": {"molecular_target": "Fuc(a1-2)Gal(b1-4)GlcNAc(b1-3)GalNAc", "summary_of_the_method": "as §1"}, "[9]": {"molecular_target": "Fuc(a1-2)Gal(b1-4)GlcNAc(b1-3)[Fuc(a1-2)Gal(b1-4)GlcNAc(b1-6)]GalNAc", "summary_of_the_method": "as §1"}, "[10]": {"molecular_target": "Fuc(a1-2)Gal(b1-4)GlcNAc(b1-3)[Fuc(a1-3)[Gal(b1-4)]GlcNAc(b1-6)]Gal(b1-4)Glc", "summary_of_the_method": "as §1"}, "[11]": {"molecular_target": "Fuc(a1-2)Gal(b1-4)GlcNAc(b1-6)GalNAc", "summary_of_the_method": "as §1"}, "[12]": {"molecular_target": "Fuc(a1-2)Gal(b1-4)GlcNAc6S", "summary_of_the_method": "as §1"}, "[13]": {"molecular_target": "Fuc(a1-2)Gal(b1-4)[Fuc(a1-3)]GlcNAc", "summary_of_the_method": "as §1"}, "[14]": {"molecular_target": "Fuc(a1-2)Gal(b1-4)[Fuc(a1-3)]GlcNAc(b1-2)Man(a1-3)[Fuc(a1-2)Gal(b1-4)[Fuc(a1-3)]GlcNAc(b1-2)Man(a1-6)]Man(b1-4)GlcNAc(b1-4)[Fuc(a1-6)]GlcNAc", "summary_of_the_method": "as §1"}, "[15]": {"molecular_target": "Fuc(a1-2)Gal(b1-4)[Fuc(a1-3)]GlcNAc(b1-2)[Fuc(a1-2)Gal(b1-4)[Fuc(a1-3)]GlcNAc(b1-4)]Man(a1-3)[Fuc(a1-2)Gal(b1-4)[Fuc(a1-3)]GlcNAc(b1-2)Man(a1-6)]Man(b1-4)GlcNAc(b1-4)GlcNAc", "summary_of_the_method": "as §1"}, "[16]": {"molecular_target": "Fuc(a1-2)Gal(b1-4)[Fuc(a1-3)]GlcNAc(b1-3)Gal(b1-4)[Fuc(a1-3)]GlcNAc", "summary_of_the_method": "as §1"}, "[17]": {"molecular_target": "Fuc(a1-2)Gal(b1-4)[Fuc(a1-3)]GlcNAc(b1-3)Gal(b1-4)[Fuc(a1-3)]GlcNAc(b1-3)Gal(b1-4)[Fuc(a1-3)]GlcNAc", "summary_of_the_method": "as §1"}, "[18]": {"molecular_target": "Fuc(a1-2)Gal(b1-4)[Fuc(a1-3)]GlcNAc(b1-3)GalNAc", "summary_of_the_method": "as §1"}, "[19]": {"molecular_target": "Fuc(a1-2)Gal(b1-4)[Fuc(a1-3)]GlcNAc(b1-3)[Neu5Ac(a2-6)Gal(b1-4)GlcNAc(b1-6)]Gal(b1-4)Glc", "summary_of_the_method": "as §1"}, "[20]": {"molecular_target": "Fuc(a1-2)Gal3S(b1-4)GlcNAc", "summary_of_the_method": "as §1"}}, "note": "The other results are listed elsewhere or left out."}
{"binder": "B1", "values": [{"measurement": "glycan array binding signal (z-score)", "setting": "Fuc(a1-2)Gal(b1-4)Glc", "value": -0.085}, {"measurement": "glycan array binding signal (z-score)", "setting": "Fuc(a1-2)Gal(b1-4)Glc6S", "value": 1.13}, {"measurement": "glycan array binding signal (z-score)", "setting": "Fuc(a1-2)Gal(b1-4)GlcNAc", "value": -0.013}, {"measurement": "glycan array binding signal (z-score)", "setting": "[1]", "value": 0.12}, {"measurement": "glycan array binding signal (z-score)", "setting": "[2]", "value": -0.217}, {"measurement": "glycan array binding signal (z-score)", "setting": "[3]", "value": 1.97}, {"measurement": "glycan array binding signal (z-score)", "setting": "[4]", "value": 0.501}, {"measurement": "glycan array binding signal (z-score)", "setting": "[5]", "value": -0.571}, {"measurement": "glycan array binding signal (z-score)", "setting": "[6]", "value": -0.087}, {"measurement": "glycan array binding signal (z-score)", "setting": "[7]", "value": -0.553}, {"measurement": "glycan array binding signal (z-score)", "setting": "[8]", "value": 0.399}, {"measurement": "glycan array binding signal (z-score)", "setting": "[9]", "value": -0.707}, {"measurement": "glycan array binding signal (z-score)", "setting": "[10]", "value": -0.792}, {"measurement": "glycan array binding signal (z-score)", "setting": "[11]", "value": -0.316}, {"measurement": "glycan array binding signal (z-score)", "setting": "[12]", "value": 0.114}, {"measurement": "glycan array binding signal (z-score)", "setting": "[13]", "value": -0.336}, {"measurement": "glycan array binding signal (z-score)", "setting": "[14]", "value": -0.424}, {"measurement": "glycan array binding signal (z-score)", "setting": "[15]", "value": 0.506}, {"measurement": "glycan array binding signal (z-score)", "setting": "[16]", "value": -0.88}, {"measurement": "glycan array binding signal (z-score)", "setting": "[17]", "value": -0.613}, {"measurement": "glycan array binding signal (z-score)", "setting": "[18]", "value": 1.77}, {"measurement": "glycan array binding signal (z-score)", "setting": "[19]", "value": -0.354}, {"measurement": "glycan array binding signal (z-score)", "setting": "[20]", "value": -0.065}]}
